According to the supplement of paper PMC11417369:
± gives the standard deviation of the averaged measurements. The list shows a part of the results.

Test system: PfAP2-LT AP2 domain (GST-tagged)
Test: gcPBM binding intensity (ln(normalized median fluorescence intensity)); higher = stronger DNA binding
Procedure, shortened: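 An Agilent 4 × 180k array of primer-extended double-stranded 36-bp intergenic genomic probes, with negative controls, was incubated for 1 h with GST-tagged P. falciparum DNA-binding domains expressed in E. coli. Alexa488 anti-GST antibody detected bound protein, scanned at 488 nm. Binding intensity is the highest Masliner-normalised natural-log median intensity across replicate spots of either probe orientation.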

In order of falling “gcPBM binding intensity (ln)” value:
1. TATATATATATATATTGTACACATACATGTAGTTTT [XGTACX_site4848]  9.48 ± 0.49
2. TACATACATACATACACACACATATAGATTTATATA [CACACA_site6999]  9.48 ± 0.28
3. ATATATATATATATATCACACATTAATAATATATAT [CACACA_site5081]  9.47 ± 0.17
4. TACACAAAAATTTATACACACACATATATAATATAT [CACACA_site7931]  9.38 ± 0.4
5. ATCAATCATGGTTTTACACACACATGCATGTGAAAA [CACACA_site1350]  9.29 ± 0.23
6. ATTTGATAGACACATGCACACATGCAATACTTTATT [CACACA_site5633]  9.24 ± 0.35
7. TATATAAAAATATACACACACAAATGTATATATATA [CACACA_site220]  9.13 ± 0.3
8. TATATATATATATAGGTGCAATATTGAAAAAATATC [GTGCAC_site9535]  9.12 ± 0.28
9. ATAATTACATTCCATACACACATATATTTAAAGGTT [CACACA_site7403]  9.02 ± 0.42
10. TATCTTCAAGTATGTACACACTATATATAATAAAAT [CACACA_site5368]  9.01 ± 0.46
11. GACAAATGAAAAGATTGTACATGTATTTGAAGATTA [XGTACX_site6775]  8.95 ± 0.38
12. TCTTTATTATTCGCCACACACATATAAATATAAATA [CACACA_site7441]  8.93 ± 0.4
13. AAAGTAATATATAATACATGCGTAAATATTTATGTA [TGCATGCA_site254]  8.84 ± 0.51
14. AAAACATAACATTGTTGTACTACTAATAAAATAAGT [XGTACX_site6149]  8.8 ± 0.52
15. TTATCATATCATGGAAGTACAAATAAAATATATAAC [XGTACX_site1608]  8.8 ± 0.44
16. AATGATATATTTAAATGTACACATGAAATATAATAT [XGTACX_site2678]  8.8 ± 0.43
17. TTATATTTGATAGTTTGTACATATAATTATTATCAT [XGTACX_site5676]  8.8 ± 0.52
18. TTTTCTGTGTTTACATGTACGAAAGATTAATATTAT [XGTACX_site5214]  8.73 ± 0.37
19. TGATTATATATAAATGTATGCATGTCTATTATGCTA [TGCATGCA_site543]  8.66 ± 0.4
20. ATAATTTTGTATAATTGTACATTATTTTAAATAAAT [XGTACX_site7952]  8.59 ± 0.47
21. TCTTCTTTAAAAGAGGTGCACTATATAATGTGATTA [GTGCAC_site9431]  8.54 ± 0.43
22. TAATTATACTTATTTTGTACGCAATATTTAAAATAA [XGTACX_site8516]  8.49 ± 0.43
23. TTTTTTTTTTTTTTTAAACACACGGTGTGAAAATTA [CACACA_site3818]  8.45 ± 0.36
24. TTCTTGTTCCTGAAAGTGCATATAACAAAAATAACA [GTGCAC_site9635]  8.39 ± 0.3
25. TCTTTTATATTTTTTTGTACACAAGAATAAAGAAAA [XGTACX_site3394]  8.12 ± 0.4
